This is an account of results in PubChem BioAssay (NCI).

The structures appear in SMILES notation. Some compounds were tested as several samples or in several runs, with calls that do not always agree.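 Step 1: grow cells in 96-well plates. Step 2: add test compound at a single concentration. Step 3: incubate 48 h. Step 4: record percent growth.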 Not every entry of the source has a single result; some have several. This list holds those alone. The calls were made as follows: active = growth percent below 10; inactive = the rest. There may be further records. The screen tested this drug many times, at its own concentration, as given; each value is one run. Marks such as (2×) say how often a value occurs here.

The assay deals with COLO 205 colon. Description: NCI-60 one-dose screen, 48 h (100 = growth as untreated, 0 = no growth, -100 = all killed).

For `COc1cccc2c1C(=O)c1c(O)c3c(c(O)c1C2=O)C[C@@](O)(C(=O)CO)C[C@@H]3OC1CC(N)C(O)C(C)O1` (stereo not given in full), the growth entry runs as follows: (0.25 µM, runs of 2015) “inactive: 41.1, 39.3 (3×), 48.6, 43.8, 40.5, 29.6, 28.1, 45.2 (2×), 52.6, 39.7, 43.7 (2×), 46.2, 35.7 (2×), 31.8, 25.9, 39.1, 36.6, 42, 33.4, 28, 39.5, 34.8, 35.5 (2×), 41, 32.5, 45.4, 44.5, 43.5, 35.4, 36.1, 31.5, 35.8, 40.6, 35.3, 33.9, 44.4 (2×), 41.8, 37.3, 38.6 (2×), 36.3, 39.2, 38.7, 33.7 (2×), 48.4, 55.2, 58.5, 51.2, 50.2, 47.4, 43.1, 51.3, 48.9, 51.6, 45.1, 48.3, 47.2, 56.3, 54.4, 38.1, 45.3, 45.8, 41.3, 42.1, 42.5, 48.7, 48, 41.6, 32.4, 44.7, 46.4, 40.2%”; (0.25 µM, runs of 2016) “inactive: 46.4 (2×), 44.2, 46.6 (2×), 49.6, 44.1, 51.8, 39.3 (2×), 38.7 (2×), 38.8, 41.1, 42.1, 31.7, 35.6 (2×), 38.1, 42.6, 40.8, 23.8, 29.5 (2×), 36.5, 39.9, 33.4, 32.9, 25.6, 33, 37.3 (2×), 42.4, 33.1, 39.5, 35.8, 39.8 (2×), 34.6, 38 (2×), 38.2, 45.3, 43.9, 46, 44, 46.9, 45.5, 57.1 (2×), 53.3, 46.1, 43.8, 43.3, 52.7, 51.3, 54, 59.8, 54.2, 56 (2×), 58.2, 55, 55.1, 54.1, 55.2, 59.6, 54.5, 61.4, 52.6 (2×), 46.3, 50.1, 47.3, 41.2, 42.8 (2×), 40.7, 48.7%”; (0.25 µM, runs of 2017) “inactive: 46.5 (2×), 31.9, 37.7, 47.4, 46.4, 48.6, 50.5 (2×), 33.5 (2×), 34.4, 44.5, 39.5, 38.9, 38.3 (2×), 42.1, 44 (3×), 40.8, 38.2, 38.7 (2×), 32.9, 41.6, 25, 35.2, 40.7, 39, 40.6 (2×), 33.9, 39.7 (2×), 44.7, 43.1, 51.7, 39.1 (2×), 39.2, 35.7, 34.8, 34.5, 44.3 (2×), 42, 34.9, 39.4 (2×), 50.7, 42.2, 44.6, 38.5, 29.1, 48.2, 32.5, 38, 36.1, 33.4, 51.5, 44.8, 43.4, 38.6, 33.3, 34.2 (2×), 44.9 (2×), 45.5, 43.8, 54.1, 49.8, 41.5, 48%”; (0.25 µM, runs of 2018) “inactive: 47.4, 44.7, 53.1, 51.1 (2×), 46.3 (2×), 45.1 (2×), 39.1 (2×), 41.6, 42.3, 52.9, 50.6, 44 (2×), 52.6, 37, 60.7, 51.5 (2×), 48.4, 48.6 (2×), 49.8 (3×), 53.7 (2×), 53.6, 58.9, 50.1 (2×), 44.8 (2×), 44.3, 43, 39.9, 49.1, 45.7, 46.9, 45.3, 42.2, 40.5, 40.2, 44.1, 46.6, 39.7, 31.7, 37.2%”; (0.25 µM, runs of 2019) “inactive: 46.4 (3×), 39.2, 38.9, 36.7, 40, 45.7, 45.4 (2×), 45.2 (2×), 39.7, 40.5, 31.5, 39.8, 42.5, 32, 45.5, 35, 46.3 (2×), 44, 37.3, 40.2, 43.5, 47.2, 46.7, 51.9, 53.3, 43.9, 51.3, 51.4, 62.8, 49.8, 45.8, 50.4 (2×), 52.7, 50, 57.5, 46, 35.7, 39%”; (0.25 µM, runs of 2020) “inactive: 32.1, 35, 45.8, 34.6, 38.5, 52.7, 39.5, 59.1, 51.1, 34, 45.9, 53.7, 35.7, 41.2, 45.7, 43.4, 54.5, 51.2, 49.6, 56.2, 48.7, 41.9, 47.4, 47.2%”. Moreover, the growth result reads like this: (0.25 µM, runs of 2021) “inactive: 60, 62.6, 47.3, 51, 53.2, 47.1, 57, 43.8, 47.6, 50.4, 59.6, 54.5, 44.4, 46.1 (2×), 44.1, 56.2, 49.7, 33.8, 26.3, 42.2, 55.7 (2×), 57.8, 45.2, 44.8, 44.2, 50.6, 58.3, 61, 45.4, 43.1, 59.1, 55.4 (2×), 56.8, 57.9, 54.7, 60.3, 60.4, 40.7, 41.3, 48.4, 40.1, 29.8, 41.8, 53.3, 50, 46.3, 70.1, 51.7, 42.4%”; (0.25 µM, runs of 2022) “active: -1.27%, 4.02% and inactive: 54.1, 63.5, 10.6, 30.7, 31.6, 37.4, 50, 56.7, 59.6, 58.5, 59.9, 45.9, 45.3, 39, 79.7, 80.2, 58.4, 73.8, 75.1, 81, 50.2, 48.4, 54.4, 48.8, 33.5%”; (25 µM, runs of 1991) “active: -55.3, -28.7, -22.4, -39.4, -72.1, -68.8, -88.4, -69.3 (2×), -40.9, -46.2, -100 (2×), -87.1, -45.3, -56.6, -91.1, -97.9%”; (25 µM, runs of 1992) “active: -52.8, -77.7, -94.1, -85.7 (2×), -92, -100 (10×), -74.3, -68.2, -68.7, -84.4, -79.5, -88.7, -97.8 (2×), -90.4, -98.4, -92.7 (2×), -95.5, -94.3, -92.3 (2×), -73.6, -62.2, -75.5, -80, -72.6, -65.7, -89.5, -46.8, -73.9 (2×), -90.7, -65.9 (2×), -82.3, -88.9, -93, -87.7 (2×), -97.9, -81.4, -46.3, -59.3, -66.3, -81.3, -90.9, -85.9, -99.7, -85, -98.7, -82.9, -65.1, -54.6, -71.4, -93.2 (2×), -85.2, -98, -96.7 (2×), -95, -95.4, -62.3, -82, -65.2, -67.5, -70.1, -80.1, -77.4, -86.7, -99.8, -98.8, -60.5, -97.6, -96.5, -87.2, -64.2, -49.9, -83.1, -77, -90.2, -63.8 (2×), -85.6, -80.2, -83.9, -95.2, -95.9, -90.1, -46.4, -60.2, -76, -62.9, -85.8, -90.8, -92.6, -65, -37.6, -79.2, -90.6 (2×), -96.2, -61.7, -5.38, -55.6, -71.2, -74.9, -89.8, -98.6, -22.6, -93.7, -81.1, -97.7%”; (25 µM, runs of 1993) “active: -56.4, -70.2, -9.2, -91.6, -88.6, -95.1, -22.6, -66.3, -77.5, -88.8, -78.8, -77.6, -42.5, 9.66, -77.1, -37.2, -66.7, -80.7, -79.6, -49.2, -84.7, -23.7, -46.6, 2.36, -96.6, -82.7, -64.9, -25.7, -91.3, -88.3, -34.2, -73.7, 7.16, -54.2, -59.6, -88.2, 1.44, 4.98, -69.3, -84, -44.1, -76.6, -87, 0.0837, -78.5, -89% and inactive: 24.2%”; (25 µM, runs of 1994) “active: -34.2, -38.1, -93.8, -83.9, -89.4, -57.1, -87.2, -83.4, -77.2, -16.3, -57.3, -91.3 (2×), -74, -25.3, -85.8, -24.6, -45, -66.3, -79.7, -75.2, -86.7, -83.3, -84.1, -26.8, -69.1, -90.1, -99.2, -39.1, -79, -98.2, -52.4, -54.4% and inactive: 85.7%”. The growth entry runs as follows: (25 µM, runs of 1995) “active: -84.8, -99.5, -88.6, -75.5, -100, -97, -99.3, -70.2, -91.6, -92.1, -95.4, -84.2, -89.7, -94.2, -70.4, -98, -97.4, -76.9, -83.9, -92.8, -12.7, -69.7, -79.7, -62.5, -30.4, -48.8, -17, -50.6, -47.9, -36.7, -68.4, -77, -92, -68.6, -75.6, 6.16, -70.1, -58.7%”; (25 µM, runs of 1996) “active: -71.9, -32, -83, -55.3, -78.7, -98, -80.8, -48.1, -55.4, -95.9, -66, -79.8, -77.5, -89.1, -87.4, -40.4, -55.6, -87.1, -52 (2×), -68.9, -60.2, -57.5, -58.1, -34, -5.58, -70.4, 1.66, -67.2, -84.4, -52.5, -57.8, -22.8, -42.3, -29.2, -82.2, -63, -90.3, -64, -19.6, -23.6, -39.5, -69.3, -51.8, -27.3, -1.55, -61.7, -36.6, -16.2, -42.8, 2.31, -77.4, -4.38, -75.5, -49.8, -90.4% and inactive: 99.4%, 95.7%”; (25 µM, runs of 1997) “active: -84.9, -72.9, -66.2, -80.7, -73.7, -67.2, -59.2, -51.6, -90.7, -67.6, -93.3, -82.8 (3×), -81.3, -83.3, -73.2, -75.6, -88.4, -49.5, -69.8, -54.9, -71.5, -82, -59.8, -71.7, -80.5, -88.6, -48.5, 8.33, -44.3, -78.4, -73.4, -85.6, -95.3, -82.9, -66, -67.4, -33.4, -30.9, -84.8, -79.4, -87.4, -41.6% and inactive: 16%”.
